The values that follow come from publication PMC13279931.

Chains of the proteins cited; added tags and fusions are not shown. Lines headed by an entry give the natural chain unless they say otherwise; changes in a name come on top.
UniProt O81283: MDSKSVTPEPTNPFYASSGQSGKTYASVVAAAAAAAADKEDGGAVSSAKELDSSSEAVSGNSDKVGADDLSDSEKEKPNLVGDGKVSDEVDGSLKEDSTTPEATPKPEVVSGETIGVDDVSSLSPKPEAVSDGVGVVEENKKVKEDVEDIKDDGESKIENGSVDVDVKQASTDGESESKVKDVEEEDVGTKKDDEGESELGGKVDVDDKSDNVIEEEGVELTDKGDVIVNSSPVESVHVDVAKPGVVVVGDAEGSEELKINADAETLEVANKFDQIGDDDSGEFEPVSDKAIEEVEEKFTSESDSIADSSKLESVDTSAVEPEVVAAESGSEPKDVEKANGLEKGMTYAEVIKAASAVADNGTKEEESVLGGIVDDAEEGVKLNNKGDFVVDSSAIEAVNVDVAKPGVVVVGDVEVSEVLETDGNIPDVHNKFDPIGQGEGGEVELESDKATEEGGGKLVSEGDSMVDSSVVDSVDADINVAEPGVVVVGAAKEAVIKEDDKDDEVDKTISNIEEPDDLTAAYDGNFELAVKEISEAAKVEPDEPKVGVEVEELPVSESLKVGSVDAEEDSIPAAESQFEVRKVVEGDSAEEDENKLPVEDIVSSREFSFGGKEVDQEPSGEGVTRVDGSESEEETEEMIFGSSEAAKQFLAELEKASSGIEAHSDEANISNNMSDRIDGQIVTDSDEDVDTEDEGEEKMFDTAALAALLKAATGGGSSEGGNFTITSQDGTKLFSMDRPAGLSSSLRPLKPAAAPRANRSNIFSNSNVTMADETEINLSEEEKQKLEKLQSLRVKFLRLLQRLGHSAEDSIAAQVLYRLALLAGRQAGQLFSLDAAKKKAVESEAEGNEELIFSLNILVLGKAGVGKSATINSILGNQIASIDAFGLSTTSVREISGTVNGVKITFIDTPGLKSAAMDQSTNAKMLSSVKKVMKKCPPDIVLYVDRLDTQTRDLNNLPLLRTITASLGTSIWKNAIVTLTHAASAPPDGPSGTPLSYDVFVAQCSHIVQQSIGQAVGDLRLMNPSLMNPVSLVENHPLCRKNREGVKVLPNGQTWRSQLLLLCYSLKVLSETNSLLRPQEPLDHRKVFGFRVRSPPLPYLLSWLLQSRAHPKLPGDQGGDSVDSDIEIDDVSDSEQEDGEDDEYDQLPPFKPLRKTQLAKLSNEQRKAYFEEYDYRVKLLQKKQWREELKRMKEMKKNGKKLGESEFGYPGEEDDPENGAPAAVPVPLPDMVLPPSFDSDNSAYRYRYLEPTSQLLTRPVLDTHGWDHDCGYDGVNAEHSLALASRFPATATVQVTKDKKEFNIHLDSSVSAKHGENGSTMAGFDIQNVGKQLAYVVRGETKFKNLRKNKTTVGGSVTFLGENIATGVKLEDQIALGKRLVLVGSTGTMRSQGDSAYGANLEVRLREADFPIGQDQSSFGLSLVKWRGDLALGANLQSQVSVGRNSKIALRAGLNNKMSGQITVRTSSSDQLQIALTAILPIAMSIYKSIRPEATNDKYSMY
UniProt Q9LUS2: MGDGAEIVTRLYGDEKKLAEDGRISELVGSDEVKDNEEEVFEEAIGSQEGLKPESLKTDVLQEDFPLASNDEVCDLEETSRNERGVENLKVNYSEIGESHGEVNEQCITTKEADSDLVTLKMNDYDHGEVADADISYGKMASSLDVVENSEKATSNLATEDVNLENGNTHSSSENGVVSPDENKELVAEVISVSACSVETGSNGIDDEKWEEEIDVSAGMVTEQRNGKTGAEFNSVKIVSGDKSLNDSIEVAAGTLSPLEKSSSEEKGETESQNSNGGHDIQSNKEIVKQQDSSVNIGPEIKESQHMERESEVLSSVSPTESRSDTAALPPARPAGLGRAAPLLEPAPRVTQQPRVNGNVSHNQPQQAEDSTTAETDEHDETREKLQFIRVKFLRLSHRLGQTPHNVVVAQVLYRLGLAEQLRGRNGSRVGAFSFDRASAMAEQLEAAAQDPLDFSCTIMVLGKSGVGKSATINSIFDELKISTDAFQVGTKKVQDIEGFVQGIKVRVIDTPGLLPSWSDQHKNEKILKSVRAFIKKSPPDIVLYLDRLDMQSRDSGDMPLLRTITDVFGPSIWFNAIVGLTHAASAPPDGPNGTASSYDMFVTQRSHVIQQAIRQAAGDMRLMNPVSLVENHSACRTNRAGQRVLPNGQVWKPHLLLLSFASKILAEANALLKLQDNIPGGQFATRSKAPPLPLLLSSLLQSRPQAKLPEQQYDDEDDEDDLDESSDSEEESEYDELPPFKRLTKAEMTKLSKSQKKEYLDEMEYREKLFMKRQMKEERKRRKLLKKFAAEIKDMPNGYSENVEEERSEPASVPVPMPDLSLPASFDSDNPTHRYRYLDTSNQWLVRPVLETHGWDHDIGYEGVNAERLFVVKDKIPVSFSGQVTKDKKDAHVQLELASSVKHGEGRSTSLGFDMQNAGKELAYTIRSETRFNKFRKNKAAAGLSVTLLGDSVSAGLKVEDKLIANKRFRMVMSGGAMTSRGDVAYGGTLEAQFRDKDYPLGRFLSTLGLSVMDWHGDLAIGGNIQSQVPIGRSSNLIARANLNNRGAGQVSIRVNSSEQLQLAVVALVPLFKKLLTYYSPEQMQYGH
UniProt Q9SLF3: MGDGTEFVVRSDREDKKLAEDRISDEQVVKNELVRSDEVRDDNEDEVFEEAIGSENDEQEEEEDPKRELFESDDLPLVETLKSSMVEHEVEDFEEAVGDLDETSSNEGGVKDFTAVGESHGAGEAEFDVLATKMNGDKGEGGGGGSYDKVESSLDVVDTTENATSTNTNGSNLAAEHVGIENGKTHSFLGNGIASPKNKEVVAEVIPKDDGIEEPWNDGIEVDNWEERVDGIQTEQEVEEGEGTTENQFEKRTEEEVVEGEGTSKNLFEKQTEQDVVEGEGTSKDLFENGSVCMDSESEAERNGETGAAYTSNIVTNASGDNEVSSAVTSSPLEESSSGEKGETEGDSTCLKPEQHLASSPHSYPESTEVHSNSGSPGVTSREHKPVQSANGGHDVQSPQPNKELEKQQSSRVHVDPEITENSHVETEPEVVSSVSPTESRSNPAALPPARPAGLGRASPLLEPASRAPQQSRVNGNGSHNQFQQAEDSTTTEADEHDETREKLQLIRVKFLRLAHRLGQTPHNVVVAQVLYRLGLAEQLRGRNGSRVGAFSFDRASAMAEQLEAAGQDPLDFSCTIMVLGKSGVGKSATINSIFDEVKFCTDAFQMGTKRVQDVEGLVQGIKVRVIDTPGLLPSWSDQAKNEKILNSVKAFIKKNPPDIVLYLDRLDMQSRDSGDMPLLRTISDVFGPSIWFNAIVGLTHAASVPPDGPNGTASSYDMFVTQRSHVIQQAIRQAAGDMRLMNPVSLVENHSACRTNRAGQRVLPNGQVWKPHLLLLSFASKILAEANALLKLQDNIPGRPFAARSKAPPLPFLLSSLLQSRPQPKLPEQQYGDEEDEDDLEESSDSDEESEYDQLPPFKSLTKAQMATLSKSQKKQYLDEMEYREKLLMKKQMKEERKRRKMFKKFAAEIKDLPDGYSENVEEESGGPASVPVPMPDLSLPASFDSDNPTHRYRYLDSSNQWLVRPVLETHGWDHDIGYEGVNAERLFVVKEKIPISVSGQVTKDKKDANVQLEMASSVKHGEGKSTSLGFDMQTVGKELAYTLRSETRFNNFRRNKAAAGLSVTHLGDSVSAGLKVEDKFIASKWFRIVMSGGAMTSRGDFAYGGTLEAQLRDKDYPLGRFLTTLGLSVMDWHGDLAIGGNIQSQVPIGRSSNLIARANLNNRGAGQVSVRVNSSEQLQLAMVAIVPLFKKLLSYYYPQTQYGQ

No constants are given. Whether binding was seen depends on the method and setting. In cells and extracts the contact can be indirect. Some entries that bind do so weakly or less than the wild type. For part of these data: Tags and fused reporters may be left off the sequences shown.

Assay [1] concerns the target T1, TAP-Toc33 (tandem-affinity-purification-tagged Toc33) (A. thaliana) (UniProt O23680).
T1 sequence: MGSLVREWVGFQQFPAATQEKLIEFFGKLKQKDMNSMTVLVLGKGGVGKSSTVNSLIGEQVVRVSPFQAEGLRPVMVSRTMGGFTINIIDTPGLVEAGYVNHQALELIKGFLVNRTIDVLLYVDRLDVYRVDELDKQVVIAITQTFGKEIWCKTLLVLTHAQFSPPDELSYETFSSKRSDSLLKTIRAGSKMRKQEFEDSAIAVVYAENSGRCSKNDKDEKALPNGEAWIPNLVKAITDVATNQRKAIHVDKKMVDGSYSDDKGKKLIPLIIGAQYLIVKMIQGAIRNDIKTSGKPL
Briefly: pull-down; TAP-tag affinity purification of TAP-Toc33 or TAP-Toc159 on IgG-sepharose from chloroplast extracts solubilised with 1% β-DM, elution by TEV protease; immunoblotting, loading normalised to Toc75.

Assay [2] has as its target T2, HA-Toc75 (Toc75 with an HA epitope tag inserted between E142 and E143 of the precursor) (A. thaliana) (UniProt Q9STE8).
T2 sequence: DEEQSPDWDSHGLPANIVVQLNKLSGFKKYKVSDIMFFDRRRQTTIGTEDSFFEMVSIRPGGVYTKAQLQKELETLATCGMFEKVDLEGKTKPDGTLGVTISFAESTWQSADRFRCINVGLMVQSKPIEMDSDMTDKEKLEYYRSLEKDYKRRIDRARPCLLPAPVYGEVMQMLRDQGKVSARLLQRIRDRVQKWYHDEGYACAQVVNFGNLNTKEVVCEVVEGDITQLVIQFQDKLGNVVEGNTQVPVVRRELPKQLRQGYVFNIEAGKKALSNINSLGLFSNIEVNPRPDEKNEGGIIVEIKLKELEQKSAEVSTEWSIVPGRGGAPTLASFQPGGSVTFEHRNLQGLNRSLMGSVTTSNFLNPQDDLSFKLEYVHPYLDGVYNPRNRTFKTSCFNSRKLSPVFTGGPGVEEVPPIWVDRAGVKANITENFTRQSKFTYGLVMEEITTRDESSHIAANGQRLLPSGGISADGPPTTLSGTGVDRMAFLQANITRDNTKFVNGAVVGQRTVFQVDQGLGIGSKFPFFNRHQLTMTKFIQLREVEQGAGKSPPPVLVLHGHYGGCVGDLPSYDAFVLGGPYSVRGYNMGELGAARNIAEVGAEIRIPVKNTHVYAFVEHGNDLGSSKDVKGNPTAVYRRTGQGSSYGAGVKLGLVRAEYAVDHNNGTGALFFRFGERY
Briefly: co-IP; anti-HA affinity purification of HA-Toc75 from root (leucoplast) extracts solubilised with 1% β-DM, elution with HA peptide, 4 °C; immunoblotting, loading normalised to Toc75. (In general: A western blot detects proteins with antibodies after separation by electrophoresis.)

For assay [3], the target named is T2, HA-Toc75 (Toc75 with an HA epitope tag inserted between E142 and E143 of the precursor) (A. thaliana). Briefly: co-IP; anti-HA affinity purification of HA-Toc75 from chloroplast-enriched leaf fractions solubilised with 1% β-DM, elution with HA peptide, 4 °C; immunoblotting, loading normalised to Toc75 (silver staining and mass spectrometry of the same kind of sample also done).

For assay [4] the target is unchanged. Briefly: co-IP; anti-HA affinity purification from extracts of about 7-day-old HA-Toc75 seedlings labelled in vivo with Na2 35SO4 (3-16 h), solubilised with 1% β-DM; SDS-PAGE, autoradiography and Coomassie staining.
The target in assay [5] is T3, Toc33G-Flag (GTPase domain of Toc33, amino acids 1-265) (A. thaliana) (UniProt O23680).
T3 sequence: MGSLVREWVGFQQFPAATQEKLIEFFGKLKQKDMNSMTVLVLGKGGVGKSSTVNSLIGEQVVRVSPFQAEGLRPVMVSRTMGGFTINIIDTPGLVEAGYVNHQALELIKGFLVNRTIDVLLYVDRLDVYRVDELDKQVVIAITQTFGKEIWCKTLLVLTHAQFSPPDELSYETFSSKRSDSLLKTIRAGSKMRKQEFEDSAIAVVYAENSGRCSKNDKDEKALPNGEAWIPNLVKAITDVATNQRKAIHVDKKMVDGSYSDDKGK
Briefly: co-IP; Toc33G-Flag and Toc159G-HA co-expressed transiently in N. benthamiana leaves; anti-FLAG magnetic agarose beads, lysis buffer 25 mM Tris-HCl pH 7.6, 150 mM NaCl, 1% NP-40, 1% sodium deoxycholate, 4 °C overnight; immunoblotting with anti-Flag and anti-HA.

For assay [6], the target named is TAP-Toc159 (tandem-affinity-purification-tagged Toc159) (A. thaliana) (UniProt O81283). Briefly: pull-down; TAP-tag affinity purification of TAP-Toc33 or TAP-Toc159 on IgG-sepharose from chloroplast extracts solubilised with 1% β-DM, elution by TEV protease; immunoblotting, loading normalised to Toc75.
In assay [7] the target is T4, Toc75 (A. thaliana (endogenous in the plants)) (UniProt Q9STE8).
T4 sequence: T2 sequence
Briefly: co-sedimentation; sucrose density gradient ultracentrifugation of crude chloroplasts of the kd-toc159 mutant solubilised with 1% β-DM and 1 mM DTT; fractions analysed by immunoblotting.

On to Toc159 (from UniProt O81283 1-1503), for which the binding result in assay [1], in assay [2], in assay [3] and in assay [4] was “binds” in each case.
As for “Toc159G-HA (GTPase domain of Toc159, amino acids 830-1078) (from UniProt O81283 830-1078) (domain or fragment)”, the binding result in assay [5] is given as “binds”.
In the case of Toc120 (from UniProt Q9LUS2 1-1089), the binding entry in assay [2] and in assay [3] was “binds” throughout.
For the molecule Toc132 (from UniProt Q9SLF3 1-1206), the binding result is recorded as “no binding” in assay [1], “no binding” in assay [6], “binds” in assay [2] and “binds” in assay [3].

B1: Toc34 (protein, UniProt Q38906 1-313)
chain: MAALQTLREWIGIQQFPPATQSKLLEILGKYKEEDVSSLTVLVMGKGGVGKSSTVNSVIGEKAAAVSTFQSEGLRPTLVSRTRSGFTLNIIDTPGLIEGGYVNDQAINIIKRFLLNMTIDVLLYVDRLDVYRVDDLDRQVVGAITDAFGKEIWKKSALVLTHAQFSPPDGLNYNHFVSKRSNALLKVIQTGAQLKKQDLQGFSIPVILVENSGRCHKNESDEKILPCGTSWIPNLFNKITEISFNGNKAIHVDKKLVEGPNPNERGKKLIPLMFAFQYLLVMKPLVRAIKSDVSRESKPAWELRDSGLASRRS
Turning to B1, the binding entry in assay [1] is given as “no binding”; in assay [6], “no binding”; in assay [2] it was “binds”; in assay [3], “binds”.

B2: Toc75 (protein, UniProt Q9STE8 141-818)
chain: T2 sequence
As to B2, the binding result in assay [1] and in assay [6] was “binds” in each case.

B3: Toc33 (protein, UniProt O23680 1-297)
chain: T1 sequence
For the molecule B3, the binding entry in assay [6], in assay [7], in assay [2] and in assay [3] was “binds” in each case.
